{"source": "PubChem BioAssay AID445", "about": "(National Center for Advancing Translational Sciences (NCATS), 2006)", "note": "About 40 (0.04%) of roughly 110,000 compounds were called active. Inconclusive results, whose numbers are uncertain, are shown with a selection of clear calls. The call rests on the fitted dose curve; in most records, active means well fitted curve in the direction sought with a large enough effect in the signal ratio (not every such curve was filed as active); inconclusive means small, poorly fitted or top-dose-only effect, or a change in a side signal; inactive means flat fitted curve, though single readings scatter; the % refers to the signal ratio. Potencies of inconclusive entries are doubtful fits and often do not repeat. Potency means the concentration at half of the fitted maximal effect.", "data": [{"experiment": "IkB Signaling;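 on IkBa stabilization activation: 0% = basal untreated cells and 100% = reference inhibitor full response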", "settings": "ABC-DLBCL IkBa-CBG/CBR dual luciferase ratio (green luciferase fused to IkBa over red control in OCI-Ly3 lymphoma cells), 4 h; IkBa stabilization activation: at 57.1 µM (top of the series), scaled: untreated 0%, proteasome inhibitor 100% unless noted", "summary_of_the_method": "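In this assay, an IκBα–CBG68 fusion accumulates when IKK-driven degradation is blocked; native CBR normalizes for cell number. OCI-Ly3 cells were treated 4 h with compound and doxycycline, then green and red light read after Chroma-Glo addition.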", "values": [{"smiles": "Cc1ccc(C(=O)CSc2nnc(-c3ccco3)n2CC2CCCO2)cc1", "note": "(centres undefined)", "IkBa stabilization activation": "inconclusive: 0.888% [signal inhibitor]"}, {"smiles": "Cc1ccc(NC(=O)NCc2c(-n3cccc3)sc3c2CCCC3)c(Cl)c1", "IkBa stabilization activation": "inactive"}, {"smiles": "CCC(=O)N1CCc2cc(S(=O)(=O)NC(CC(C)C)C(=O)NCc3cccc(OC)c3)ccc21", "note": "(centres undefined)", "IkBa stabilization activation": "inactive"}, {"smiles": "COc1cc(NC(=O)C2CCN(S(=O)(=O)c3c(C)noc3/C=C/c3c(C)cc(C)cc3C)CC2)cc(OC)c1", "IkBa stabilization activation": "inconclusive: -1.43% [signal inhibitor]"}, {"smiles": "COc1ccc(OC)c(CNc2ncc(-c3ccc(Cl)cc3)n2C)c1", "IkBa stabilization activation": "inconclusive: 5.59% [signal inhibitor]"}, {"smiles": "Cc1cccc(C)c1NC(=O)c1cc2sccc2n1Cc1ccc(F)cc1", "IkBa stabilization activation": "inactive"}, {"smiles": "COC(=O)CSc1nc2cc(C)cc(C)c2cc1C#N", "IkBa stabilization activation": "inactive"}, {"smiles": "Cc1ccccc1CN1C(=O)c2ccccc2Sc2ccc(C(=O)NCCCN3CCOCC3)cc21", "IkBa stabilization activation": "inconclusive: 3.28% [signal inhibitor]"}, {"smiles": "CC(C)COc1ccc(-c2nnn(CC(=O)N3CCCC3)n2)cc1", "IkBa stabilization activation": "inactive"}, {"smiles": "Cc1ccc(Sc2c(C)nn(-c3ccccc3)c2OC(=O)CC(C)C)cc1", "IkBa stabilization activation": "inconclusive: 10.2% [signal inhibitor]"}, {"smiles": "Cc1noc(C)c1-c1nc(Nc2ccc(F)cc2)c2ccccc2n1", "IkBa stabilization activation": "inactive: -1.54% [at 11.4 µM, scaled: untreated 0%, proteasome inhibitor 100%]"}, {"smiles": "CC(=O)c1ccc(S(=O)(=O)Nc2cccc(-c3ccc(N4CCCC4)nn3)c2)cc1", "IkBa stabilization activation": "inconclusive: 0.332% [signal inhibitor]"}, {"smiles": "CCOc1ccc(C2c3[nH]c4ccccc4c3CCN2C(=O)CCC2CCCC2)cc1", "note": "(centres undefined)", "IkBa stabilization activation": "inconclusive: -1.24% [signal inhibitor]"}, {"smiles": "Cc1nn(-c2ccc(N3CCCCC3)nn2)c(C)c1CCC(=O)Nc1cccc(F)c1", "IkBa stabilization activation": "inactive"}, {"smiles": "O=c1cc(-c2ccccc2)nc(SCc2nc(-c3cccc(C(F)(F)F)c3)no2)[nH]1", "IkBa stabilization activation": "inconclusive: -3.77% [signal inhibitor]"}, {"smiles": "CCN(CCCNC(=O)CN1N=C(c2ccc(C)cc2)CCC1=O)c1ccccc1", "IkBa stabilization activation": "inconclusive: 1.13% [signal inhibitor]"}, {"smiles": "CCCCN(CC)C(=O)Cn1cc2c(n1)-c1c(oc(C(=O)N3CCCC3)c1C)CC2", "IkBa stabilization activation": "inconclusive: -0.988% [signal inhibitor]"}, {"smiles": "Cc1c(C#N)c2ccccc2n1CC(=O)NCCc1c[nH]c2ccccc12", "IkBa stabilization activation": "inconclusive: 4.44% [signal inhibitor]"}, {"smiles": "Cc1cccc2cc3c(NC(=O)C(C)C)nn(C)c3nc12", "IkBa stabilization activation": "inactive"}, {"smiles": "NC(=O)/C(=C\\c1ccncc1)c1cccc2ccccc12", "IkBa stabilization activation": "inactive: -1.63% [at 11.4 µM, scaled: untreated 0%, proteasome inhibitor 100%]"}, {"smiles": "COC(=O)COc1ccc(S(=O)(=O)Nc2ccc3c(c2)OCO3)cc1Cl", "IkBa stabilization activation": "inconclusive: -1.21% [signal inhibitor]"}, {"smiles": "COc1ccc(CNC(=O)C2CCN(c3nnc(C)c4c(C)n(-c5ccc(C)cc5)nc34)CC2)cc1", "IkBa stabilization activation": "inconclusive: 5.54% [signal inhibitor]"}, {"smiles": "Cc1ccc(-c2nn3c(C)nnc3c3ccccc23)cc1S(=O)(=O)NC(C)(C)CO", "Potency": "inconclusive: 3.98 µM [signal activator]"}, {"smiles": "Cc1cc(=Nc2ccc3c(c2)c(N)cc(C)[n+]3C)nc(N)n1C", "IkBa stabilization activation": "inactive: 1.51% [at 11.4 µM, scaled: untreated 0%, proteasome inhibitor 100%]"}, {"smiles": "N#C/C(=C\\c1ccc(O)c(O)c1)C(N)=O", "IkBa stabilization activation": "inconclusive: 5.42% [signal inhibitor]"}, {"smiles": "O=C(Nc1ccccc1N1CCCC1)c1ccco1", "IkBa stabilization activation": "inactive"}, {"smiles": "CCOc1ccc(N(C)S(=O)(=O)c2cc(-c3cnc(C)o3)ccc2OC)cc1", "IkBa stabilization activation": "inconclusive: 0.562% [signal inhibitor]"}, {"smiles": "COc1ccc(/C=C/C(=O)Nc2cccc(F)c2)cc1", "Potency": "inconclusive: 25.1 µM [signal inhibitor, partial curve]"}, {"smiles": "O=C(Nc1ccc(C(F)(F)F)cc1)C1(c2cccs2)CCOCC1", "IkBa stabilization activation": "inactive"}, {"smiles": "CCCOC(=O)c1cccc(Nc2nc(C(=O)OCC)nc3ccccc23)c1", "Potency": "inconclusive: 25.1 µM [signal inhibitor, single point]"}, {"smiles": "COc1ccc(CNC(=O)Cc2ccc(NC(=O)N3CCCCc4ccccc43)cc2)cc1", "IkBa stabilization activation": "inactive"}, {"smiles": "Cc1ccc(C=Nc2ccc(N(C)C)cc2)o1", "Potency": "inconclusive: 10 µM [signal inhibitor, partial curve]"}, {"smiles": "CCCCOc1ccc(-c2nnn(CCC(=O)N3CCOCC3)n2)cc1", "IkBa stabilization activation": "inactive"}, {"smiles": "Cc1ccc(NC(=O)c2c(C)oc3ncnc(N4CCCCC4)c23)c(C)c1", "IkBa stabilization activation": "inconclusive: 0.162% [signal inhibitor]"}, {"smiles": "C=C(Br)CN(C)CC(=C)Br", "IkBa stabilization activation": "inactive: 1.13% [at 11.4 µM, scaled: untreated 0%, proteasome inhibitor 100%]"}, {"smiles": "CC(Oc1ccccc1F)C(=O)NCC1(N2CCOCC2)CCCCC1", "note": "(centres undefined)", "IkBa stabilization activation": "inconclusive: 0.61% [signal inhibitor]"}, {"smiles": "Cc1ccc(C)c(Cn2nnc3c(=O)[nH]c(C4CCCN(C(=O)C5CCCCC5)C4)nc32)c1", "note": "(centres undefined)", "IkBa stabilization activation": "inconclusive: 4.19% [signal inhibitor]"}, {"smiles": "CC(C)CN(CC(C)C)c1nnc(NC(=O)Nc2cccc(C(F)(F)F)c2)s1", "IkBa stabilization activation": "inconclusive: 1.7% [signal inhibitor]"}, {"smiles": "COc1ccc(OCC(=O)Nc2ccc3c(c2)N(C)C(=O)c2ccccc2S3)cc1", "IkBa stabilization activation": "inconclusive: 1.43% [signal inhibitor]"}, {"smiles": "Cc1ccc2nc(Cl)c3cc(C(=O)N4CCCC(C)C4)sc3c2c1", "note": "(centres undefined)", "IkBa stabilization activation": "inactive"}, {"smiles": "COC(=O)CSc1nnc(-c2cccc(O)c2)o1", "IkBa stabilization activation": "inconclusive: 1.15% [signal inhibitor]"}, {"smiles": "CCn1c(SCC(=O)c2cc(OC)ccc2OC)nnc1C1CC1", "IkBa stabilization activation": "inconclusive: 13.6%"}, {"smiles": "O=C(CCS(=O)(=O)c1nc(-c2ccc3c(c2)OCO3)cc(C(F)(F)F)n1)Nc1ccccc1C(F)(F)F", "IkBa stabilization activation": "inactive"}, {"smiles": "CC1=C(C(=O)Nc2ccc(C)cc2C)C(c2cc(Br)ccc2F)n2ncc(C(=O)Nc3ccc(C)cc3)c2N1", "note": "(centres undefined)", "IkBa stabilization activation": "inconclusive: -2.02% [signal inhibitor]"}]}]}
